Test results published in PubChem BioAssay AID504332 (National Center for Advancing Translational Sciences (NCATS), 2011).
Hit rate of the full screen: of about 350,000 compounds, about 31,000 (8.9%) were called active. This list was built around the results that the source calls inconclusive (neither active nor inactive); the mix of calls is not that of the screen. Calls come from the whole dose curve; as a rule, active = well fitted inhibition curve with a large enough effect; inconclusive = small, poorly fitted or top-dose-only effect; inactive = no such curve, though single readings can be large or run the other way. Potencies of inconclusive entries are doubtful fits and often do not repeat.

What follows are molecules tested against Histone-lysine N-methyltransferase EHMT2 (Homo sapiens) (UniProt Q96KQ7) (assay: qHTS Assay for Inhibitors of Histone Lysine Methyltransferase G9a). Settings: G9a H3K9 monomethylation, AlphaScreen, 2 h; activity, negative = inhibition: at 59 µM (top of the series) unless noted.
Outline: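 Quantitative HTS format: methyltransferase activity on a biotin-tagged H3K9 peptide is measured by AlphaScreen, using a rabbit anti-monomethyl-H3K9 antibody with streptavidin donor and anti-IgG acceptor beads. Final levels are 20 nM enzyme, 500 nM peptide, 20 uM SAM; 2 h RT.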
% is set by controls: 0 for no effect and ±100 for the full control effect; potency is the fitted concentration of half-maximal effect; tags give direction and shape of the fitted curve.
Note: nearly all actives have a fitted effect of over 75% in size.

UniProt Q96KQ7, sequence (Q96KQ7 whole entry, looked up): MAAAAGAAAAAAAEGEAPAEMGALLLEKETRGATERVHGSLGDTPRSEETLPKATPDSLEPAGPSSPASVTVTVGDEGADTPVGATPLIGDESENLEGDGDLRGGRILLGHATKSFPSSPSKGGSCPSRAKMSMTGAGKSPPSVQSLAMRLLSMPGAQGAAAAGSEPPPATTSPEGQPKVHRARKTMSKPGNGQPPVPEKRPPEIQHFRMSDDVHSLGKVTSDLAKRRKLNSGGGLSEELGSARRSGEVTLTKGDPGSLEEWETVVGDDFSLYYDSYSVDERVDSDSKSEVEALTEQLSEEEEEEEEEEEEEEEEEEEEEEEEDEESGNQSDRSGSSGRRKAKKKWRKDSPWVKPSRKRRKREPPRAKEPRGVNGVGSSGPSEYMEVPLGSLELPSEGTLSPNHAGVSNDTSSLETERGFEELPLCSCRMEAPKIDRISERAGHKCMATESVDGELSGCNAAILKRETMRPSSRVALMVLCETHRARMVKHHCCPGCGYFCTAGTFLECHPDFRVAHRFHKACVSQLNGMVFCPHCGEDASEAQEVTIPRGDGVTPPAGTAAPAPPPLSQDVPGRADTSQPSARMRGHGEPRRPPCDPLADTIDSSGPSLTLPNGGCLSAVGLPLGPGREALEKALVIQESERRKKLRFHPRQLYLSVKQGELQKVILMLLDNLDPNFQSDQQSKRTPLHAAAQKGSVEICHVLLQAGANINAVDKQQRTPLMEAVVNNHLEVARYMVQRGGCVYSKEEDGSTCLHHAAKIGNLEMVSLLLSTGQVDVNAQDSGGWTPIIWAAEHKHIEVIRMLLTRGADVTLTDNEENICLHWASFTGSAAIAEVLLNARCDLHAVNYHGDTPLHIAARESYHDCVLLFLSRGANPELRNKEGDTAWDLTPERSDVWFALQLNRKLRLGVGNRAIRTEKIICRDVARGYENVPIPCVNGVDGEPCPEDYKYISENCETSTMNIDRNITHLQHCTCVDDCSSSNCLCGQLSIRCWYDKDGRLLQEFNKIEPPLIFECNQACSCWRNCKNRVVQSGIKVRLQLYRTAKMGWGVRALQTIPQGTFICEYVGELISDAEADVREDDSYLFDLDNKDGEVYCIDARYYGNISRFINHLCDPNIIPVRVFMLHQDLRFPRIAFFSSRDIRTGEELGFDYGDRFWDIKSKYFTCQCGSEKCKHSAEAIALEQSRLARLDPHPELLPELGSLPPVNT

Structure (SMILES)	activity, negative = inhibition	Potency
COc1ccc(/C=C/C(=O)N2CCN(c3ccccc3)CC2)cc1S(=O)(=O)N1CCOCC1	inactive: 4.28% [at 102 µM]	
CCOC(=O)c1cc2c(=O)n3ccccc3nc2n(CC(C)C)c1=NC(=O)c1ccco1		inconclusive: 28.2 µM [inhibitor, full curve]
Cc1cc(Sc2nnc(/N=C/N(C)C)s2)c2ccccc2n1		inconclusive: 89.1 µM [inhibitor, partial curve, poor fit]
CCN(Cc1ccncc1)Cc1ccc(OC)cc1OC		inconclusive: 0.141 µM [inhibitor, full curve, poor fit]
CC(C)(C)c1ccc(/C([O-])=C(/C(=S)NCc2ccco2)[n+]2ccccc2)cc1		inconclusive: 7.08 µM [inhibitor, partial curve, poor fit]
COc1ccc(Nc2nc(NCCN3CCOCC3)nc(Nc3ccc(OC)cc3)n2)cc1		inconclusive: 79.4 µM [inhibitor, single point]
COc1ccccc1NC(=O)COc1ccc(/C=N/n2cnnc2)cc1OC	inactive: 11.4% [at 102 µM]	
O=C(Cn1nc(C(F)F)cc1C(F)F)NNC(=S)Nc1ccc(F)cc1		inconclusive: 12.6 µM [inhibitor, partial curve, poor fit]
CSCCC(=O)N1CCN(CC(=O)N2CCCC2)CC1		inconclusive: 0.562 µM [inhibitor, partial curve, poor fit]
Cc1noc(C)c1C(=O)Nc1sc2c(c1C(N)=O)CCCCC2		inconclusive: 39.8 µM [inhibitor, single point]
O=C(Cc1ccc(F)cc1)NCc1nc2cccnc2n1Cc1ccc(F)cc1	inactive: 10.6%	
Cc1ccc(C)c(OCC(=O)NCCN(C)C)c1		inconclusive: 89.1 µM [inhibitor, single point]
CCCS(=O)(=O)NCCc1cc2c(C)ccc(C)c2[nH]c1=O		inconclusive: 0.708 µM [inhibitor, full curve, poor fit]
COc1ccc(-c2cc3ncnc(Cl)c3s2)cc1		inconclusive: 89.1 µM [inhibitor, single point]
COc1cccc(-c2nc(SCC(=O)NCC3CCCO3)c(-c3ccc(F)cc3)[nH]2)c1 (stereo not drawn)		inconclusive: 14.1 µM [inhibitor, partial curve, poor fit]
Cc1cc2c3c([nH]c2cc1S(=O)(=O)NCCCOC(C)C)CC(C)(C)CC3=O	inactive: 42% [at 102 µM]	
COC(=O)c1cccc(Nc2c3c(nc4ccccc24)CCC3)c1		inconclusive: 89.1 µM [inhibitor, single point]
COc1ccc(Oc2ncc3nc(-c4ccc(F)cc4)c(=O)n(CCC#N)c3n2)cc1	inactive: -1.24% [at 0.501 µM]	
